# Among all 410,000 compounds or so, about 310 (0.076%) were called active. Inconclusive means that the source gave no clear call. Such entries were picked first, then a sample of the others. The call rests on the fitted dose curve; in most records, active means well fitted curve in the direction sought with a large enough effect; inconclusive means small, poorly fitted or top-dose-only effect; inactive means flat fitted curve, though single readings scatter. Where the call is inconclusive, the potency comes from a doubtful curve fit.
# Target: DNA dC->dU-editing enzyme APOBEC-3G (Homo sapiens) (UniProt Q9HC16)
# Sequence of UniProt Q9HC16 (Q9HC16 whole entry, looked up): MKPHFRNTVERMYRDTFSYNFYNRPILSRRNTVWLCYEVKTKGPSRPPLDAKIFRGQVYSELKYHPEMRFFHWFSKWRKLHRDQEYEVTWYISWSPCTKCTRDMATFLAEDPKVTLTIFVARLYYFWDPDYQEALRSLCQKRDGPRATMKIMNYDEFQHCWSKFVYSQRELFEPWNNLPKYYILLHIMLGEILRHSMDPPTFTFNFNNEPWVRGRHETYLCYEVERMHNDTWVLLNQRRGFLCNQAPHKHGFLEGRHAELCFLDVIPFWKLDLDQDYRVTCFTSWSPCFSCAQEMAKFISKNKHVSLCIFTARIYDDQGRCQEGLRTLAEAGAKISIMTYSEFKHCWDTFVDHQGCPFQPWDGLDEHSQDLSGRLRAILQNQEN
# Assay: qHTS for Inhibitors of Vif-A3G Interactions: qHTS; further: nearly all actives have a fitted effect of over 60% in size
# Settings: HeLa A3G-eYFP + Vif (tagged APOBEC3G with the HIV-1 protein that degrades it), YFP fluorescence, overnight; series mostly up to 46.1 µM
# Method in brief: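 Read-out is eYFP fluorescence (Ex 488/Em 500-530) from Vif-expressing HeLa A3G-eYFP cells; more signal means A3G escaped Vif-mediated degradation. Cells plated overnight, compound pinned in, incubated overnight at 37 deg C.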
# Potency means the concentration at half of the fitted maximal effect; tags describe the fitted curve by direction and shape.
row,SMILES,Potency
1,COc1ccccc1-n1cnc(N)c1C(=O)c1ccccc1,"inconclusive: 7.08 µM [inhibitor, partial curve]"
2,Clc1cccc(CN2CCc3c([nH]c4ccccc34)C2)c1Cl,"inconclusive: 12.6 µM [inhibitor, single point]"
3,CCOC(=S)SCC(=O)N1CCc2cc(OC)ccc2C1C1C(=O)CCCC1=O (configuration not stated),"inconclusive: 3.98 µM [inhibitor, full curve, poor fit]"
4,Clc1ccc(/C(Cc2nc3ccccc3[nH]2)=N\Nc2ccccc2)cc1,inactive
5,CCOC(=O)c1[nH]c(C)c(C(=O)Nc2ccccc2F)c1C,"inconclusive: 2.82 µM [inhibitor, full curve]"
6,Cc1ccc(C)n1Cc1ccc(C(=O)O)cc1,inactive
7,Cn1c(=O)c2c(nc(N3CCCCCC3)n2CC(O)COc2ccccc2)n(C)c1=O (configuration not stated),inactive
8,COc1ccc(Cl)cc1NC(=O)CCS(=O)(=O)c1nc(-c2cccs2)cc(C(F)(F)F)n1,"inconclusive: 28.2 µM [inhibitor, partial curve, poor fit]"
9,c1ccc2c(c1)ccc1[nH]c3c(c12)CCCC3,"inconclusive: 12.6 µM [inhibitor, partial curve, poor fit]"
10,COc1cc(C2C(C#N)=C(N)Oc3cc(C)oc(=O)c32)cc(OC)c1OC (configuration not stated),"inconclusive: 11.2 µM [inhibitor, partial curve, poor fit]"
11,COc1ccccc1CNC(=O)CCC1N=C2c3ccccc3N=C(SCc3cccc(Cl)c3)N2C1=O (configuration not stated),inactive
12,Cc1cc(C)cc(NS(=O)(=O)c2ccc(Oc3ncc(C(F)(F)F)cc3Cl)cc2)c1,"inconclusive: 35.5 µM [inhibitor, single point]"
13,CCn1ncc(/C=N\NC(=O)COc2cc(C)cc(C)c2)c1C,"inconclusive: 10 µM [inhibitor, partial curve]"
14,Cc1cccc(N2CCN(C(=O)C3CC(=O)N(c4ccc5c(c4)OCCO5)C3)CC2C)c1 (configuration not stated),"inconclusive: 12.6 µM [inhibitor, partial curve, poor fit]"
15,COc1ccc([N+](=O)[O-])cc1COc1cc(C)cc2oc(=O)cc(-c3ccccc3)c12,"inconclusive: 3.55 µM [inhibitor, single point]"
16,COCCNc1nc(Nc2ccccc2Cl)c2sccc2n1,"inconclusive: 7.08 µM [inhibitor, partial curve, poor fit]"
17,CN1C(=O)CC2(C=CC(=O)C=C2OC(=O)c2ccccc2)c2ccccc21 (configuration not stated),inactive
18,COc1ccc(/C=N/NC(=O)c2ccccc2O)cc1Cn1cc([N+](=O)[O-])cn1,"inconclusive: 35.5 µM [inhibitor, single point]"
19,COc1ccc(NC(=O)Cn2nnc(-c3ccccc3NS(=O)(=O)c3ccc(OC)cc3)n2)cc1,"inconclusive: 8.91 µM [inhibitor, partial curve, poor fit]"
20,O=C(N/N=C/c1c[nH]c2ccccc12)c1cc2ccccc2o1,"inconclusive: 10 µM [inhibitor, partial curve, poor fit]"
21,CCOC(=O)CN1C(=O)CSc2ccc(S(=O)(=O)N3CCCC3)cc21,inactive

row,SMILES,Potency
1,C/C(=N\NC(=O)c1nnn(-c2nonc2N)c1-c1ccc2c(c1)OCO2)c1ccc(C)cc1,"inconclusive: 7.08 µM [inhibitor, partial curve, poor fit]"
2,c1cncc(-c2nn3c(Cn4nnc5ccccc54)nnc3s2)c1,inactive
3,CCn1c(=O)c2cc(C(=O)NCCc3cc(OC)ccc3OC)sc2c2ccccc21,inactive
4,COCCCn1c(=O)/c(=C\c2ccccc2OC(C)C)s/c1=C(/C#N)C(=O)Nc1ccc(C(=O)O)cc1,"inconclusive: 15.8 µM [inhibitor, single point]"
5,NC(C(=O)O)c1nn[nH]n1 (configuration not stated),inactive
6,COc1ccc(C2Sc3ccccc3NC3=C2C(=O)c2ccccc23)c(OC)c1OC (configuration not stated),"inconclusive: 1.26 µM [inhibitor, full curve, poor fit]"
7,CC(=O)Oc1ccccc1C(=O)C=Cc1cccc([N+](=O)[O-])c1,"inconclusive: 6.31 µM [inhibitor, partial curve, poor fit]"
8,O=C(O)CNC(=O)c1ccc2c(c1)OCCO2,inactive
9,COc1cc(C)c(C(=O)Oc2cc(C)c(C(=O)O)c(O)c2C)c(O)c1C(=O)O,inactive
10,Cc1ccc2nc3sc(C(=O)Nc4c(C)[nH]c(=O)[nH]c4=O)c(N)c3cc2c1,"inconclusive: 35.5 µM [inhibitor, single point]"
11,O=C(CN1CCN(c2ccc(Cl)cc2)CC1)NCc1ccccc1,inactive
12,CN(C)c1ccc(C(=O)/C=C/c2cccnc2)cc1,"inconclusive: 25.1 µM [inhibitor, single point]"
13,CC(C)c1ccc(NC(=O)Nc2nc(C(N)C(C)C)cs2)cc1 (configuration not stated),"inconclusive: 35.5 µM [inhibitor, single point]"
14,O=C(O)c1ccc(N/N=C/C=C/c2ccc([N+](=O)[O-])o2)cc1,"inconclusive: 14.1 µM [inhibitor, partial curve, poor fit]"
15,COC/C=C/C1=CC(=O)C[C@H](c2ccc3c(c2)OCO3)C1,"inconclusive: 12.6 µM [inhibitor, single point]"
16,COc1ccc(C2c3c(oc4ccc(F)cc4c3=O)C(=O)N2Cc2ccc3c(c2)OCO3)cc1 (configuration not stated),inactive
17,O=C(c1ccc(Cn2cc(Br)cn2)cc1)N1CCN(c2ccccc2)CC1,"inconclusive: 11.2 µM [inhibitor, partial curve, poor fit]"
18,O=C(N/N=C/c1ccc([N+](=O)[O-])o1)c1ccncc1,"inconclusive: 15.8 µM [inhibitor, single point]"
19,O=C1OCCN1C(=O)[C@H]1[C@H](c2ccc([N+](=O)[O-])cc2)C(c2ccccc2)=NN1c1ccc(Br)cc1,inactive
20,O=c1c(Cl)c(Cl)cnn1Cc1ccc(F)cc1,"inconclusive: 22.4 µM [inhibitor, single point]"
21,C=C(C(=O)c1ccccc1)C(C)CC(=O)c1ccccc1 (configuration not stated),"inconclusive: 3.16 µM [inhibitor, full curve, poor fit]"

# — PubChem BioAssay AID602310 (National Center for Advancing Translational Sciences (NCATS), 2012)
